Assay results from PubChem BioAssay AID504339 (National Center for Advancing Translational Sciences (NCATS), 2011).
Out of some 390,000 compounds screened, about 17,000 (4.4%) were called active. This list was built around the results that the source calls inconclusive (neither active nor inactive); the mix of calls is not that of the screen. Calls come from the whole dose curve; as a rule, active = well fitted inhibition curve with a large enough effect; inconclusive = small, poorly fitted or top-dose-only effect; inactive = no such curve, though single readings can be large or run the other way. Potencies of inconclusive entries are doubtful fits and often do not repeat.

What follows are compounds tested against Lysine-specific demethylase 4A (Homo sapiens) (UniProt O75164) (assay: qHTS Assay for Inhibitors of JMJD2A-Tudor Domain). Conditions: AlphaScreen JMJD2A-Tudor / H3K4me3 peptide binding; series mostly up to 114 µM.
Chain of UniProt O75164 (O75164 whole entry, looked up, the tested form may be a part): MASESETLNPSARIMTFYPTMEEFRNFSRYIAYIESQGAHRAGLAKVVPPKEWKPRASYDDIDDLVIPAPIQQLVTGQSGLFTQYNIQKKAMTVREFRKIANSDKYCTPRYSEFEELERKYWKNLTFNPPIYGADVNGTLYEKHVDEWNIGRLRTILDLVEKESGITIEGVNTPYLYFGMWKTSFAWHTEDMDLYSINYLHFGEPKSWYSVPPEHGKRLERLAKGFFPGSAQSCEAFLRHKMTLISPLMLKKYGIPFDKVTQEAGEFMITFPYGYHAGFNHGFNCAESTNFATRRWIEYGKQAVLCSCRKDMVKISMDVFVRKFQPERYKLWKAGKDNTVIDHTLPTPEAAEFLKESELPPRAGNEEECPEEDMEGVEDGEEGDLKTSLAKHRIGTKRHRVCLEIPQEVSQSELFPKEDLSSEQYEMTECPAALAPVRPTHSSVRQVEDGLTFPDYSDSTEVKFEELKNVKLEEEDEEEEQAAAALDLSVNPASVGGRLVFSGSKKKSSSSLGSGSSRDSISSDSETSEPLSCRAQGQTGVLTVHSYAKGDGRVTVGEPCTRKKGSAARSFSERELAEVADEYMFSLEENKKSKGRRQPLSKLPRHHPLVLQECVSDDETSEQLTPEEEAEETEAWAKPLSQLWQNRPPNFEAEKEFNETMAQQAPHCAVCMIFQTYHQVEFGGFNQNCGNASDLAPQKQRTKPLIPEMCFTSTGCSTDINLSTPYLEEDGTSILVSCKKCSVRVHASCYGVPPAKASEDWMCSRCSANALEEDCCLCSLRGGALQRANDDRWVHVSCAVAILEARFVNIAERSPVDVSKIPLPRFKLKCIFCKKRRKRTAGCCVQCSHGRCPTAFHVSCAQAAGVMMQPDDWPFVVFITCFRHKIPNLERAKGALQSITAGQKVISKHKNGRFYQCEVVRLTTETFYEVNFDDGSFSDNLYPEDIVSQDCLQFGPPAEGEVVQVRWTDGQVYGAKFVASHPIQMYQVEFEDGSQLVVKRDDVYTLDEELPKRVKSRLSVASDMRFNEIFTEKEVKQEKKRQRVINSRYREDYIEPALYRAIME
Note: nearly all actives have a fitted effect of over 50% in size.
Potency is the fitted concentration of half-maximal effect; tags give direction and shape of the fitted curve.

SMILES	Potency
O=S(=O)(Nc1cccc2ccccc12)c1cccs1	inactive
Cn1c(C(=O)N2CCN(Cc3ccccc3)CC2)cc2c(=O)n(C)c3ccccc3c21	inconclusive: 89.1 µM [inhibitor, single point]
CC(C)c1ccc(CN(C)C(=O)c2ccc(S(=O)(=O)NCc3ccco3)cc2)cc1	inconclusive: 89.1 µM [inhibitor, partial curve]
Cc1nc2nc(SCC(=O)c3ccc([N+](=O)[O-])cc3)[nH]c2cc1Br	inconclusive: 89.1 µM [inhibitor, single point]
CCCn1cnc2cc(NCc3cccs3)ccc21	inconclusive: 56.2 µM [inhibitor, partial curve]
Cc1ccc(-c2nc(CS(=O)(=O)CC(=O)N3CCN(c4ccccc4)CC3)c(C)o2)cc1	inconclusive: 50.1 µM [inhibitor, partial curve]
O=C(CCc1nnc(CCCc2ccccc2)o1)NCCc1ccco1	inactive
Cc1cc(C)cc(NC(=S)N(CCN2CCCCC2)Cc2ccco2)c1	inconclusive: 50.1 µM [inhibitor, partial curve]
Cc1ccc(S(=O)(=O)Nc2ccccc2N=Cc2ccc([N+](=O)[O-])cc2[N+](=O)[O-])cc1	inconclusive: 44.7 µM [inhibitor, partial curve]
COc1cccc(CNCc2ccc(SC)cc2)c1OC	active: 12.6 µM
NN=C1C(=O)c2cccc3cccc1c23	inconclusive: 44.7 µM [inhibitor, partial curve]
CCc1nn(-c2ccccc2)c2c1-c1cc(OC)c(OC)cc1C1(N2)C(=O)Nc2ccccc21 (configuration not stated)	inconclusive: 35.5 µM [inhibitor, full curve]
O=C(CSc1nnc(-c2ccccc2F)o1)NC1CCCCC1	inactive
Cc1ccc(NC2CCCN(C(=O)c3ccc4[nH]ccc4c3)C2)cc1C (configuration not stated)	inconclusive: 56.2 µM [inhibitor, partial curve]
C=C(C)c1cccc(C(C)(C)NC(=O)NC2CC(C)(C)NC(C)(C)C2)c1	inactive
CCN1C(=O)[C@@H]2[C@@H](c3ccc(-c4ccc(Cl)c(Cl)c4)cc3)N3CCC[C@@]3(C(=O)OC)[C@@H]2C1=O	inconclusive: 70.8 µM [inhibitor, single point]
COCCCNC(=O)Cn1c(=O)n(Cc2ccccc2Cl)c(=O)c2cc(OC)c(OC)cc21	inconclusive: 15.8 µM [inhibitor, single point]
CC(C)[C@H](NS(=O)(=O)c1ccccc1)C(=O)Nc1nccs1	inconclusive: 15.8 µM [inhibitor, partial curve]
C/C(=N/NC(=O)c1ccc(C(C)(C)C)cc1)c1ccccn1	active: 44.7 µM
C=C(C)c1sc(-c2ccc(Cl)cc2)nc1C	inactive
COc1cc(C2C3=C(Nc4nc(N)[nH]c(=O)c42)c2ccccc2C3=O)ccc1O (configuration not stated)	inconclusive: 25.1 µM [inhibitor, full curve, poor fit]
COc1ccc(-c2cc(C(=O)Oc3ccc(C#N)cc3)no2)cc1	inconclusive: 100 µM [inhibitor, partial curve]
O=C1CN(S(=O)(=O)c2c(F)cccc2F)CCN1S(=O)(=O)c1ccc2c(c1)OCCO2	inactive
Clc1cccc(CN2CCSCC2)c1Cl	active: 3.55 µM

SMILES	Potency
COc1ccc(C(=O)NNC(=O)c2ccccn2)cc1	inactive
CCOc1ccccc1CNS(=O)(=O)c1ccc2c(c1)oc(=O)n2C	inconclusive: 20 µM [inhibitor, full curve]
O=C1CC(N2CCSCC2)C(=O)N1c1cccc(Cl)c1 (configuration not stated)	inactive
CCN(CC)c1ccc(NS(=O)(=O)c2ccc(OC)cc2)cc1	inactive
COC(=O)c1ccc(CN2CCCC(C(=O)c3ccccc3OC)C2)cc1 (configuration not stated)	inactive
CCCN1CCN(C(=S)Nc2sc(CC)cc2C(=O)OC)CC1	inconclusive: 22.4 µM [inhibitor, partial curve]
COc1ccc(C2=Nn3c(nnc3-c3ccccc3F)SC2)cc1OCC1CC1	inconclusive: 79.4 µM [inhibitor, partial curve, poor fit]
COc1cccc(N2C(=O)[C@H]3C(C(=O)c4cnccn4)=NN[C@H]3C2=O)c1	active: 50.1 µM
C=CCN(CC=C)C(=O)C(=O)c1cc(C)n(-c2ccc([N+](=O)[O-])cc2)c1C	inconclusive: 50.1 µM [inhibitor, partial curve]
O=C(C1=C(O)C(=O)N(c2ncccn2)C1c1cccc(Cl)c1)c1ccco1 (configuration not stated)	inactive
O=C(C1CC(c2ccccc2O)=NO1)N1CCCC1 (configuration not stated)	inconclusive: 89.1 µM [inhibitor, single point]
COCCNC(=S)Nc1cc2oc3ccccc3c2cc1OC	inconclusive: 79.4 µM [inhibitor, partial curve]
Cc1ccc2c(c1)C1CN(C)CCC1N2S(=O)(=O)c1ccc(Oc2ccc([N+](=O)[O-])cc2)cc1 (configuration not stated)	active: 22.4 µM
c1ccc(-c2ccccc2OCCCCN2CCCCC2)cc1	active: 39.8 µM
O=C(Nc1nnc(SCC(=O)N2CCOCC2)s1)c1ccccc1	inconclusive: 70.8 µM [inhibitor, single point]
O=C(O)/C(=C\c1ccco1)NC(=O)c1ccc(Br)o1	inconclusive: 89.1 µM [inhibitor, partial curve]
O=C(NCc1n[nH]c(=S)n1-c1ccc(Br)cc1)c1ccc(S(=O)(=O)N2CCOCC2)cc1	inconclusive: 70.8 µM [inhibitor, single point]
Cc1ccc(C(C(=O)NCC2CCCO2)N(Cc2ccccc2)C(=O)c2ccc(-c3ccccc3)[nH]2)o1 (configuration not stated)	inconclusive: 39.8 µM [inhibitor, partial curve]
Cc1ccc(CC2CC(=O)N(c3ccncc3)C2=O)cc1 (configuration not stated)	inactive
CCc1nc(SCC(=O)c2cccs2)c2oc3ccccc3c2n1	inactive
Nc1ncc(N=Nc2cc(C(=O)O)ccc2Cl)s1	inconclusive: 79.4 µM [inhibitor, single point]
Cc1nn(C)c(C(=O)NNC(=S)NCc2ccco2)c1Cl	inconclusive: 89.1 µM [inhibitor, single point]
CCN(CC)S(=O)(=O)c1nnc(NC(=O)c2ccc(C)cc2)s1	inconclusive: 15.8 µM [inhibitor, partial curve, poor fit]
CN(C)c1ccc(-n2cccc2/C=C/[N+](=O)[O-])cc1	active: 25.1 µM

SMILES	Potency
O/C(=C\c1nc2ccccc2nc1/C=C(\O)c1ccccc1)c1ccccc1	inconclusive: 70.8 µM [inhibitor, partial curve, poor fit]
CC1CN(C(=O)N2CCC(C(=O)NCc3ccco3)CC2)c2ccccc2O1 (configuration not stated)	inconclusive: 14.1 µM [inhibitor, full curve]
COc1ccc(Cl)cc1C(=O)CSc1nc(N)cc(N)n1	inconclusive: 39.8 µM [inhibitor, full curve]
CC(NC(=O)/C=C/c1ccc(Br)cc1)c1ccc(Cl)cc1 (configuration not stated)	inactive
CCOc1cccc(C2c3c(oc4ccc(F)cc4c3=O)C(=O)N2c2cc(C)ccn2)c1 (configuration not stated)	inactive
Cc1cccc(-c2nc3cc(NC(=O)COc4ccccc4F)ccc3o2)c1	inactive
O=C(O)c1cc(S(=O)(=O)O)ccc1O	inconclusive: 15.8 µM [inhibitor, partial curve]
O=C(NNC(=O)c1ccc(F)cc1F)c1ccc2c(c1)OCO2	inactive
CCCN(C(=O)CSc1nnnn1-c1ccccc1OC)C1CCS(=O)(=O)C1 (configuration not stated)	inactive
COc1cc(OC)cc(OC(=O)c2ccc3c(=O)n4c(nc3c2)CCC4)c1	inconclusive: 50.1 µM [inhibitor, partial curve]
CCc1ccc(Nc2cnn(C34CC5CC(CC(CC(=O)O)(C5)C3)C4)c(=O)c2Cl)cc1	inconclusive: 63.1 µM [inhibitor, partial curve]
O=C(NNC(=O)c1ccc(NC(=O)c2ccccc2)cc1)Nc1ccccc1	inconclusive: 50.1 µM [inhibitor, partial curve]
CCc1cc(=O)oc2c(C)c(OCC(=O)NCCN3CCOCC3)ccc12	inconclusive: 22.4 µM [inhibitor, full curve, poor fit]
Cc1cccc(-n2nc3c(c2NC(=O)c2ccc(Br)o2)CSC3)c1C	inconclusive: 89.1 µM [inhibitor, single point]
CCCc1nn2c(=O)cc(COC(=O)c3ccccc3NC(=O)c3ccc(OCC)cc3)nc2s1	inactive
Fc1ccc(-n2nc(-c3ccccc3)c3cnc4ccccc4c32)cc1Cl	inactive
CCOc1ccc(-c2cc3c(=O)n(CC(=O)NCc4ccccc4)ccn3n2)cc1	inconclusive: 15.8 µM [inhibitor, partial curve, poor fit]
Cc1ccccc1Nc1nc(N)nc(CSc2nnnn2C)n1	inconclusive: 89.1 µM [inhibitor, partial curve]
Oc1cc2c(cc1CN1CCN(c3ncccn3)CC1)OCO2	inconclusive: 50.1 µM [inhibitor, partial curve]
c1ccc2c(c1)nc(Nc1ccc(N3CCCCC3)cc1)c1nncn12	active: 44.7 µM
COc1cc(C(=O)NCCNc2nc3cc(C)ccc3cc2C#N)cc(OC)c1OC	inactive
O=C(NCCc1ccccc1)c1ccc2c(c1)CCN2S(=O)(=O)c1ccc(Cl)cc1	inactive
CCn1cc(/C=C(\NC(=O)c2ccccc2Cl)C(=O)NCCCn2ccnc2)c2ccccc21	inconclusive: 44.7 µM [inhibitor, partial curve]
COC(=O)c1c2c(nc3ccccc13)CCC2	inactive
